These results are taken from paper PMC9911399, “Two distinct binding modes provide the RNA-binding protein RbFox with extraordinary sequence specificity”.

Sequences and labels used below:
B1: GCCCAUC (DNA:RNA)
RNA: GGGAGACCGGAAUUCAGAUUGUCCGCCCAUCUUAAAUCCCGUCGUAGCCACCA
DNA 1: CAATCTGAATTCCGGTCTCCC
DNA 2: TGGTGGCTACGACGGGATT
B2: CUUAGAG (DNA:RNA)
RNA: GGGAGACCGGAAUUCAGAUUGUCCCUUAGAGUUAAAUCCCGUCGUAGCCACCA
DNA 1: CAATCTGAATTCCGGTCTCCC
DNA 2: TGGTGGCTACGACGGGATT
B3: CCCUUUA (DNA:RNA)
RNA: B1 RNA with G25C, C28U, A29U, C31A
DNA 1: CAATCTGAATTCCGGTCTCCC
DNA 2: TGGTGGCTACGACGGGATT
B4: CGAGUAA (DNA:RNA)
RNA: B2 RNA with U26G, U27A, A28G, G29U, G31A
DNA 1: CAATCTGAATTCCGGTCTCCC
DNA 2: TGGTGGCTACGACGGGATT
B5: UACGGCC (DNA:RNA)
RNA: B1 RNA with G25U, C26A, C28G, A29G, U30C
DNA 1: CAATCTGAATTCCGGTCTCCC
DNA 2: TGGTGGCTACGACGGGATT
B6: UGGUAUC (DNA:RNA)
RNA: B1 RNA with G25U, C26G, C27G, C28U
DNA 1: CAATCTGAATTCCGGTCTCCC
DNA 2: TGGTGGCTACGACGGGATT
B7: GUCCCGA (DNA:RNA)
RNA: B1 RNA with C26U, A29C, U30G, C31A
DNA 1: CAATCTGAATTCCGGTCTCCC
DNA 2: TGGTGGCTACGACGGGATT
B8: UCCAGCG (DNA:RNA)
RNA: B2 RNA with C25U, U26C, U27C, A30C
DNA 1: CAATCTGAATTCCGGTCTCCC
DNA 2: TGGTGGCTACGACGGGATT
B9: CGCCUAU (DNA:RNA)
RNA: B2 RNA with U26G, U27C, A28C, G29U, G31U
DNA 1: CAATCTGAATTCCGGTCTCCC
DNA 2: TGGTGGCTACGACGGGATT
B10: UUGAUGC (DNA:RNA)
RNA: B2 RNA with C25U, U27G, G29U, A30G, G31C
DNA 1: CAATCTGAATTCCGGTCTCCC
DNA 2: TGGTGGCTACGACGGGATT
B11: UGUACAU (DNA:RNA)
RNA: B2 RNA with C25U, U26G, G29C, G31U
DNA 1: CAATCTGAATTCCGGTCTCCC
DNA 2: TGGTGGCTACGACGGGATT
B12: UUGCCUA (DNA:RNA)
RNA: B1 RNA with G25U, C26U, C27G, A29C, C31A
DNA 1: CAATCTGAATTCCGGTCTCCC
DNA 2: TGGTGGCTACGACGGGATT
B13: CAGAAGC (DNA:RNA)
RNA: B2 RNA with U26A, U27G, G29A, A30G, G31C
DNA 1: CAATCTGAATTCCGGTCTCCC
DNA 2: TGGTGGCTACGACGGGATT
B14: CAUCUUG (DNA:RNA)
RNA: B2 RNA with U26A, A28C, G29U, A30U
DNA 1: CAATCTGAATTCCGGTCTCCC
DNA 2: TGGTGGCTACGACGGGATT
B15: GGAACCG (DNA:RNA)
RNA: B2 RNA with C25G, U26G, U27A, G29C, A30C
DNA 1: CAATCTGAATTCCGGTCTCCC
DNA 2: TGGTGGCTACGACGGGATT
B16: GUGACAC (DNA:RNA)
RNA: B2 RNA with C25G, U27G, G29C, G31C
DNA 1: CAATCTGAATTCCGGTCTCCC
DNA 2: TGGTGGCTACGACGGGATT
B17: CGAAAAC (DNA:RNA)
RNA: B2 RNA with U26G, U27A, G29A, G31C
DNA 1: CAATCTGAATTCCGGTCTCCC
DNA 2: TGGTGGCTACGACGGGATT
B18: UAUCAGU (DNA:RNA)
RNA: B1 RNA with G25U, C26A, C27U, U30G, C31U
DNA 1: CAATCTGAATTCCGGTCTCCC
DNA 2: TGGTGGCTACGACGGGATT
B19: AACUCCC (DNA:RNA)
RNA: B1 RNA with G25A, C26A, C28U, A29C, U30C
DNA 1: CAATCTGAATTCCGGTCTCCC
DNA 2: TGGTGGCTACGACGGGATT
B20: UUCCCCG (DNA:RNA)
RNA: B2 RNA with C25U, U27C, A28C, G29C, A30C
DNA 1: CAATCTGAATTCCGGTCTCCC
DNA 2: TGGTGGCTACGACGGGATT
B21: UUCGAAA (DNA:RNA)
RNA: B2 RNA with C25U, U27C, A28G, G29A, G31A
DNA 1: CAATCTGAATTCCGGTCTCCC
DNA 2: TGGTGGCTACGACGGGATT
B22: AUGGCCU (DNA:RNA)
RNA: B2 RNA with C25A, U27G, A28G, G29C, A30C, G31U
DNA 1: CAATCTGAATTCCGGTCTCCC
DNA 2: TGGTGGCTACGACGGGATT
B23: AGAUUCG (DNA:RNA)
RNA: B2 RNA with C25A, U26G, U27A, A28U, G29U, A30C
DNA 1: CAATCTGAATTCCGGTCTCCC
DNA 2: TGGTGGCTACGACGGGATT
B24: ACCUCUU (DNA:RNA)
RNA: B1 RNA with G25A, C28U, A29C, C31U
DNA 1: CAATCTGAATTCCGGTCTCCC
DNA 2: TGGTGGCTACGACGGGATT
B25: CCCCAGA (DNA:RNA)
RNA: B1 RNA with G25C, U30G, C31A
DNA 1: CAATCTGAATTCCGGTCTCCC
DNA 2: TGGTGGCTACGACGGGATT
B26: GUACGCU (DNA:RNA)
RNA: B2 RNA with C25G, U27A, A28C, A30C, G31U
DNA 1: CAATCTGAATTCCGGTCTCCC
DNA 2: TGGTGGCTACGACGGGATT
B27: GAUUGCA (DNA:RNA)
RNA: B2 RNA with C25G, U26A, A28U, A30C, G31A
DNA 1: CAATCTGAATTCCGGTCTCCC
DNA 2: TGGTGGCTACGACGGGATT
B28: AAGGCGG (DNA:RNA)
RNA: B2 RNA with C25A, U26A, U27G, A28G, G29C, A30G
DNA 1: CAATCTGAATTCCGGTCTCCC
DNA 2: TGGTGGCTACGACGGGATT
B29: CGGUUGA (DNA:RNA)
RNA: B2 RNA with U26G, U27G, A28U, G29U, A30G, G31A
DNA 1: CAATCTGAATTCCGGTCTCCC
DNA 2: TGGTGGCTACGACGGGATT
B30: CACACCC (DNA:RNA)
RNA: B2 RNA with U26A, U27C, G29C, A30C, G31C
DNA 1: CAATCTGAATTCCGGTCTCCC
DNA 2: TGGTGGCTACGACGGGATT
B31: UAGCUCC (DNA:RNA)
RNA: B1 RNA with G25U, C26A, C27G, A29U, U30C
DNA 1: CAATCTGAATTCCGGTCTCCC
DNA 2: TGGTGGCTACGACGGGATT

Residue numbers refer to the chain shown, from its start. The list shows a part of the results.

The target in this assay is T1, RBFOX1 RRM RbFoxmut (Fox-RRM*) (Homo sapiens, UniProt Q9NWB1 109-208, R118D;E147R;N151S;E152T).
T1 sequence: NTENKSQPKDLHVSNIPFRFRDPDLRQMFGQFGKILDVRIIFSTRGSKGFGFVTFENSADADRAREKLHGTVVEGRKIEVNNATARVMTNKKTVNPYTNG
The assay is described as follows: EMSA; HiTS-Eq, 1 nM pool, 10 min; buffer printed only for the single-RNA assays: 10 mM Tris pH 7.5, 150 mM NaCl, 3.4 mM EDTA, 0.001% NP-40, 30 C. Conditions: tags: His6 N-terminal (pET28a); label: 5' 32P. The essentials:
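These values rest on relative association constants, computed from read-count changes of each RNA species versus the control reaction and normalised to the cognate motif. Reads came from free RNA recovered by 8% native PAGE after purified RbFox RRM (wild type or mutant) at increasing concentrations was equilibrated for 10 min in 50 µL with 1 nM of a 5′-radiolabelled pool with 7 randomized nucleotides and DNA-annealed flanks.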
Background: In EMSA bound probe runs differently from free probe, usually more slowly.
Consider B1, for which the binding signal is 0.0616 KA relative to UGCAUGU. With B2, the binding signal was 0.115 KA relative to UGCAUGU.

Take B3: the binding signal is 0.0917 KA relative to UGCAUGU. As for B4, the binding signal was 0.12 KA relative to UGCAUGU. For the molecule B5, the binding signal was 0.185 KA relative to UGCAUGU. Under B6 stands 0.356 KA relative to UGCAUGU.

Turning to B7, the binding signal is 0.0763 KA relative to UGCAUGU. Then B8, with 0.138 KA relative to UGCAUGU. For B9, the binding signal was 0.123 KA relative to UGCAUGU. Then B10, with 0.112 KA relative to UGCAUGU; and B11, with 0.0793 KA relative to UGCAUGU; and B12, with 0.121 KA relative to UGCAUGU. Turning to B13, the binding signal was 0.076 KA relative to UGCAUGU. Then B14, with 0.12 KA relative to UGCAUGU. As for B15, the binding signal is 0.142 KA relative to UGCAUGU. For B16, the binding signal was 0.0549 KA relative to UGCAUGU.

As to B17, the binding signal is 0.0621 KA relative to UGCAUGU. B18: the binding signal is 0.0554 KA relative to UGCAUGU. As to B19, the binding signal is 0.0421 KA relative to UGCAUGU. In the case of B20, the binding signal was 0.084 KA relative to UGCAUGU.

For the molecule B21, the binding signal is 0.082 KA relative to UGCAUGU. For B22, the binding signal was 0.103 KA relative to UGCAUGU. With B23, the binding signal is 0.137 KA relative to UGCAUGU.

For the molecule B24, the binding signal was 0.0684 KA relative to UGCAUGU. Turning to B25, the binding signal is 0.0916 KA relative to UGCAUGU. Turning to B26, the binding signal was 0.126 KA relative to UGCAUGU.

For B27, the binding signal was 0.171 KA relative to UGCAUGU. As for B28, the binding signal is 0.103 KA relative to UGCAUGU. Then B29, with 0.139 KA relative to UGCAUGU. On to B30, for which the binding signal is 0.0762 KA relative to UGCAUGU. Then B31, with 0.0703 KA relative to UGCAUGU.
